# Data reported in paper PMC10723142.
# Results are given in words; binding and its absence hold for the method and conditions named. Binding seen in cells or lysates may run through a third protein. Some results given as binding are weak or reduced against the parent protein; the word gives no strength. Where a sequence is shown, tags or fusion partners need not be part of it.
# Molecular target: T1, His6-tagged full-length FleN (Fle^HisN^FL) (P. aeruginosa) (UniProt G3XD64)
# T1 sequence: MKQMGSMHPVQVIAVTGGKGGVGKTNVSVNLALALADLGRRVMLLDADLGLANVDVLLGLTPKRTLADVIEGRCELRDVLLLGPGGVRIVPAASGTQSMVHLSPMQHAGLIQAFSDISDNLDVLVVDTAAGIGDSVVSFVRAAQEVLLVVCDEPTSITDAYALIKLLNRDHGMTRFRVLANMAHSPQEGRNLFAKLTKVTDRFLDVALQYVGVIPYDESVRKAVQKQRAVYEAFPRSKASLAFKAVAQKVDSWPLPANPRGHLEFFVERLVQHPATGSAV
# Test: pull-down; coexpression in E. coli; His6-tagged bait held on Talon IMAC resin, untagged partner as prey; 20 mM HEPES pH 8.0, 120 mM NaCl, 19 mM imidazole; no nucleotide cofactors; wash over 40 column volumes; elution 200 mM imidazole; SDS-PAGE, Coomassie
row,Substance,binding
1,FleQ AAA+-HTH tandem (FleQ^AAA+-HTH) (from UniProt G3XCV0 138-490) (domain or fragment),no binding
2,FleQ receiver and ATPase domain tandem (FleQ^REC-AAA+) (from UniProt G3XCV0 1-394) (domain or fragment),binds
3,FleQ receiver domain (FleQ^REC) (from UniProt G3XCV0 1-139) (domain or fragment),no binding
4,FleQ variant missing the last 13 amino acids (FleQ^FL*) (from UniProt G3XCV0 1-477) (domain or fragment),binds
5,isolated FleQ ATPase domain (FleQ^AAA+) (from UniProt G3XCV0 138-394) (domain or fragment),no binding
